Results on one substance are retold here after patent US6756233B1, “Method for measuring free ligands in biological fluids, and assay kits for measuring same” (priority 1985, dated 2004).

This test has as its target charcoal absorbed human serum albumin (Homo sapiens, UniProt P02768). Description: Free testosterone assay, effect of elevated albumin (Example 4). The test is classed as binding. The protocol:
Free testosterone calibrators, prepared by adding different amounts of testosterone to human serum free of any apparent testosterone, were calibrated by direct equilibrium dialysis and assigned free testosterone values in pg/ml. […] The tubes are incubated for 4 hours at 37° C., then decanted and radioactivity counted. Results are computed by interpolation to from the calibration curve.

Chain of UniProt P02768 (P02768 25-609): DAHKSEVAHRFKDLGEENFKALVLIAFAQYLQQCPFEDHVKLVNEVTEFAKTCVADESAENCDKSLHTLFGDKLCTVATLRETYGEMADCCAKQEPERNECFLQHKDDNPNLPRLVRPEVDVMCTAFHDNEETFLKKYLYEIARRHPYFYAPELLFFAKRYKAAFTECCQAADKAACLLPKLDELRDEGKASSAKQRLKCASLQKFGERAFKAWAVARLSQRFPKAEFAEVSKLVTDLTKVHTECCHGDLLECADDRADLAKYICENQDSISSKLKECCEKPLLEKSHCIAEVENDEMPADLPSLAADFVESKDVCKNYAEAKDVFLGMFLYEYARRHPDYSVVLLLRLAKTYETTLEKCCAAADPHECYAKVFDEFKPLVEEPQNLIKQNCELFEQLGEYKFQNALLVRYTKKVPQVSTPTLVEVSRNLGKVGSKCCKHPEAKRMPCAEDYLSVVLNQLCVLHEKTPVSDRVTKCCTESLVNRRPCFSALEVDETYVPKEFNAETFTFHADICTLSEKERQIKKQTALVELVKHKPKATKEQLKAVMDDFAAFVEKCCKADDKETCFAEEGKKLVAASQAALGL

For “6-hydroxytestosterone-19-carboxymethyl ether histamine”, the “free testosterone, Mean of 3 samples” value runs as follows: (Spiked with Albumin 1.0 gm/dl) 19.3 pg/mL; (Spiked with Albumin 2.0 gm/dl) 18.4 pg/mL; (Spiked with Albumin 3.0 gm/dl) 17.9 pg/mL; (Unspiked) 19.5 pg/mL.
